From the supplement of paper PMC8821664
Where a name gives a salt, the structure may show the parent alone. The list shows a part of the results. Many values rest on one well or one pass, so single values are uncertain.

Tested on: Beas-2B AQP5-HiBiT reporter cells
Experiment: AQP5-HiBiT luminescence relative to vehicle (ratio to vehicle); higher = higher AQP5-HiBiT protein abundance
Conditions: 10 µM; 18 h
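Further: monoclonal Beas-2B line stably carrying CMV promoter-driven AQP5-HiBiT, 5,000 cells per well in 384-well plates, lytic HiBiT plus LgBiT NanoLuc luminescence, FDA-approved drug library screen.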

Structure (SMILES)	AQP5-HiBiT luminescence
Cc1c(O)cccc1C(=O)N[C@@H](CSc1ccccc1)[C@H](O)CN1C[C@H]2CCCC[C@H]2C[C@H]1C(=O)NC(C)(C)C [Nelfinavir Mesylate]	1.63
CNNCc1ccc(C(=O)NC(C)C)cc1 [Procarbazine hydrochloride]	0.932
C[C@]12CC[C@@H]3c4ccc(O)cc4CC[C@H]3[C@@H]1CC[C@@H]2OC(=O)CCC1CCCC1 [Depofemin]	0.844
C[C@H](CCC(=O)O)[C@H]1CC[C@H]2[C@@H]3[C@H](O)C[C@@H]4C[C@H](O)CC[C@]4(C)[C@H]3C[C@H](O)[C@]12C [Cholic Acid]	0.855
CS(=O)(=O)c1ccc(C(=O)Nc2ccc(Cl)c(-c3ccccn3)c2)c(Cl)c1 [Vismodegib (GDC-0449)]	0.859
CC(=O)NCCCS(=O)(=O)O [Acamprosate calcium]	0.842
C[C@@H]1[C@H](O)[C@@H](C)/C=C/C=C/C=C/C=C/C=C/C=C/C=C/[C@H](O[C@@H]2O[C@H](C)[C@@H](O)[C@H](N)[C@@H]2O)C[C@@H]2O[C@](O)(C[C@@H](O)C[C@@H](O)[C@H](O)CC[C@@H](O)C[C@@H](O)CC(=O)O[C@H]1C)C[C@H](O)[C@H]2C(=O)O [Amphotericin B]	0.858
CN(C)CCCN1c2ccccc2Sc2ccc(Cl)cc21 [Chlorpromazine hydrochloride]	1.05
CC1=C(/C=C/C(C)=C/C=C/C(C)=C\C(=O)O)C(C)(C)CCC1 [Isotretinoin]	0.785
CCC(=O)Oc1ccc2c(c1)CCC1C2CCC2(C)C(OC(=O)CC)CCC12 (stereo not drawn) [17-Beta-Estradiol-3,17-Dipropionate]	0.723
C#CCN(C)Cc1ccccc1 [Pargyline hydrochloride]	1.05
CN1CCC[C@@H]1CCO[C@](C)(c1ccccc1)c1ccc(Cl)cc1 [Clemastine fumarate]	1.25
CN1C(=O)OC(C)(C)C1=O [Trimethadione]	0.581
CN(C)c1cc(NC(=O)CNC(C)(C)C)c(O)c2c1C[C@H]1C[C@H]3[C@H](N(C)C)C(O)=C(C(N)=O)C(=O)[C@@]3(O)C(O)=C1C2=O [Tigecycline]	0.78
CCN[C@@H]1C[C@H](N)[C@@H](O[C@H]2OC(CN)=CC[C@H]2N)[C@H](O)[C@H]1O[C@H]1OC[C@](C)(O)[C@H](NC)[C@H]1O [Netilmicin sulfate]	1.29
C[C@H]1CN(C[C@H](Cc2ccccc2)C(=O)NCC(=O)O)CC[C@@]1(C)c1cccc(O)c1 [Alvimopan]	0.733
CC(C)c1nc(N(C)S(C)(=O)=O)nc(-c2ccc(F)cc2)c1/C=C/[C@@H](O)C[C@@H](O)CC(=O)O [Rosuvastatin calcium]	0.744
OC(CNCC(O)C1CCc2cc(F)ccc2O1)C1CCc2cc(F)ccc2O1 (stereo not given) [Nebivolol hydrochloride]	1.16
C[C@]12C=CC(=O)C=C1CC[C@@H]1[C@@H]2[C@@H](O)C[C@@]2(C)[C@H]1CC[C@]2(O)C(=O)COP(=O)(O)O [Prednisolone phosphate sodium]	0.786
C[C@@H]1C[C@H]2[C@@H]3C[C@H](F)C4=CC(=O)C=C[C@]4(C)[C@@]3(F)[C@@H](O)C[C@]2(C)[C@@]1(O)C(=O)CO [Flumethasone]	0.641

Structure (SMILES)	AQP5-HiBiT luminescence
N[C@@H](Cc1cc(I)c(Oc2ccc(O)c(I)c2)c(I)c1)C(=O)O [Liothyronine sodium]	1.01
Nc1ccc(S(=O)(=O)c2ccc(N)cc2)cc1 [Sulphadione]	0.894
CC1(C)S[C@@H]2[C@H](NC(=O)Cc3ccccc3)C(=O)N2[C@H]1C(=O)O [Penicillin G sodium salt]	0.825
Cn1c(=O)c2nc[nH]c2n(C)c1=O [Theophylline monohydrate]	0.676
CC(C)[N+]1(C)[C@@H]2CC[C@H]1C[C@@H](OC(=O)C(CO)c1ccccc1)C2 (stereo not given in full) [Ipratropium bromide monohydrate]	1.04
NC(=O)N1c2ccccc2C=Cc2ccccc21 [Carbamazepine]	0.784
COc1ccc2[nH]c(SCc3ncc(C)c(OC)c3C)nc2c1 [Omeprazole sulfide]	0.86
CN[C@H](CC(C)C)C(=O)N[C@H]1C(=O)N[C@@H](CC(N)=O)C(=O)N[C@H]2C(=O)N[C@H]3C(=O)N[C@H](C(=O)N[C@H](C(=O)O)c4cc(O)cc(O)c4-c4cc3ccc4O)[C@H](O)c3ccc(c(Cl)c3)Oc3cc2cc(c3O[C@@H]2O[C@H](CO)[C@@H](O)[C@H](O)[C@H]2O[C@H]2C[C@](C)(N)[C@H](O)[C@H](C)O2)Oc2ccc(cc2Cl)[C@H]1O [Vancomycin hydrochloride]	0.978
C[C@H](Cn1cnc2c(N)ncnc21)OCP(=O)(O)O [Tenofovir]	0.808
CC(=O)NC[C@H]1CN(c2ccc(N3CCOCC3)c(F)c2)C(=O)O1 [Linezolid]	0.754
Brc1c(NC2=NCCN2)ccc2nccnc12 [Brimonidine Tartrate]	0.874
NC(=O)OCC(COC(N)=O)c1ccccc1 [Felbamate]	0.616
C[C@H](CCC(=O)O)[C@H]1CC[C@H]2[C@@H]3[C@H](O)C[C@@H]4C[C@H](O)CC[C@]4(C)[C@H]3CC[C@]12C [Chenodeoxycholic acid]	0.896
COc1cc([C@@H]2c3cc4c(cc3[C@@H](O[C@@H]3O[C@@H]5CO[C@@H](c6cccs6)O[C@H]5[C@H](O)[C@H]3O)[C@H]3COC(=O)[C@H]23)OCO4)cc(OC)c1O [Teniposide]	0.582
C[C@]12CCC3=C4CCC(=O)C=C4CC[C@H]3[C@@H]1CC[C@@]2(O)CC#N [Dienogest]	0.53
COc1ccnc(C[S+]([O-])c2nc3cc(OC(F)F)ccc3[nH]2)c1OC (stereo not given) [Pantoprazole Sodium Hydrate]	0.704
Cn1c(=O)c2[nH]cnc2n(C)c1=O [Aminophylline]	0.728
CC1(C)S[C@@H]2[C@H](NC(=O)[C@H](C(=O)O)c3ccsc3)C(=O)N2[C@H]1C(=O)O [Ticarcillin disodium]	1.25
CC(C)(C)C(=O)OCOP(=O)(COCCn1cnc2c(N)ncnc21)OCOC(=O)C(C)(C)C [Adefovir dipivoxil]	1.05
CC1=C(/C=C/C(C)=C/C=C/C(C)=C/C(=O)O)C(C)(C)CCC1 [Tretinoin]	0.923
